Our source for the binding signal values is article PMC6212790.

The list shows a part of the results. At the low end of the ranking, values are background and their order means little.

The target in this test is T1, GST-Rok-C97-191 (UniProt O34857).
T1 sequence: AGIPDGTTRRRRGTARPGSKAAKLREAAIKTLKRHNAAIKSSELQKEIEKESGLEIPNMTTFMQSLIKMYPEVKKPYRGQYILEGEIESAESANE
In words: protein binding microarray.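 Also: rank score from −0.5 (least bound) to 0.5 (best bound).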 The following applies: Rok is a gene silencer of Bacillus subtilis; high values mean tight binding; most listed sequences are background and not binding sites; double strand, one strand shown.
Regarding AGACCCAC, the binding signal was -0.0968 E-score. As for CCGGAATA, the figure is 0.248 E-score; as for ATTGAGGC, -0.208 E-score; as for AGTTGTAC, 0.245 E-score. For TCGACAAA, the binding signal was -0.00611 E-score. For ATGGATAC the value was 0.0686 E-score. The sequence TAGTAGCA displayed a binding signal of 0.316 E-score. CTACGGTA yielded a binding signal of 0.142 E-score. With GTAGTATA, the binding signal is 0.428 E-score. As for AATATTGG, the figure is -0.0277 E-score; as for GCTGTAAA, 0.112 E-score; as for GAGCACGC, -0.0757 E-score.

Take AACAAAGG: the binding signal was -0.0348 E-score.

Regarding AGATGCGC, the binding signal is -0.0363 E-score.

The sequence GAAGGGTA registered a binding signal of -0.0966 E-score. As for ATACGGAC, the figure is 0.0241 E-score. As for GCGTAGTA, the figure is 0.178 E-score; as for AGACATAA, 0.121 E-score; as for TTAGCAAA, 0.177 E-score.

For ACGTCGGG, the binding signal was -0.253 E-score. As for AGCGGGAA, the figure is -0.26 E-score. As for CACTCACG, the figure is -0.012 E-score; as for CCCAGCCG, -0.245 E-score; as for CGTGGTTA, -0.0573 E-score. As for CCGAGCTC, the binding signal was -0.00832 E-score. As for CTTGGTTA, the figure is -0.0516 E-score. As for AAGCATCC, the figure is -0.133 E-score; as for ATTAGTAG, 0.319 E-score. Sequence CTTCCCTC gave a binding signal of -0.0926 E-score.

With TATTGAGA, the binding signal was 0.0663 E-score.

Regarding CTTCGACA, the binding signal is 0.062 E-score. For AAGATCAC the value was 0.221 E-score. For AGGAGACA the value was -0.179 E-score; for ACGAAATG, 0.155 E-score. For the sequence CGGTTGCC, the binding signal was -0.267 E-score. For GTGATGAA the value was 0.0495 E-score.

In turn, CTCGAAAC came in with a binding signal of 0.104 E-score. As for CCATTAGC, the figure is 0.0566 E-score.

CGACATCA registered a binding signal of -0.0626 E-score. As for CCAGATGG, the figure is -0.16 E-score. For CCAGGAAA the value was -5.76e-05 E-score; for CGGTCCTA, -0.0529 E-score. For ATTGAATA the value was -0.00104 E-score. CAGTCGTA returned a binding signal of 0.0418 E-score. As to ATTCCCAG, the binding signal came to 0.0654 E-score. For ACGTCCGC the value was -0.117 E-score.

In turn, CAGTAATC registered a binding signal of -0.0737 E-score. Take AAATAACT: the binding signal worked out at 0.293 E-score. As for AGGTCATA, the figure is -0.0971 E-score; as for CTTTTAGA, -0.0974 E-score; as for CACCGTGC, -0.169 E-score.

CAATCGAG: the binding signal came to 0.0453 E-score. For AACGGGAC the value was 0.0504 E-score; for GGGAAGTA, 0.257 E-score; for AGTTAGAA, 0.208 E-score. With TCCGAGCA, the binding signal came out at 0.113 E-score. For GACTATTA the value was 0.165 E-score; for AGGTAGTC, 0.0784 E-score. As for CCGAAAAG, the figure is 0.128 E-score; as for CATGTCGC, -0.0085 E-score; as for ACAGACTC, 0.00978 E-score.

As to TGGAGCCA, the binding signal was -0.182 E-score. For GGACTGCC the value was -0.361 E-score. For ATTTCCGG the value was -0.113 E-score; for GGCTCAGA, -0.136 E-score; for GCTTAGTA, 0.105 E-score.

In turn, CGCTAGAA came in with a binding signal of 0.247 E-score.

With CGACATCG, the binding signal was -0.000361 E-score. As for CCGTAAGG, the binding signal was -0.329 E-score. For GGGTATCA the value was -0.0828 E-score; for ACGTGACG, -0.0727 E-score.

GACAATAA: the binding signal amounted to 0.0721 E-score. As for AAATTGCA, the figure is 0.035 E-score; as for ATGGGATG, 0.0334 E-score.

ATCTCAGG came in with a binding signal of 0.0237 E-score. The sequence ATTCAAAG returned a binding signal of -0.0854 E-score. As for CAGGCCGG, the figure is -0.24 E-score. For TATGTTGA the value was 0.0507 E-score; for GCCGCGTA, -0.133 E-score; for AGACAGGG, -0.206 E-score.

In the case of GCGGGCCA, the binding signal is -0.372 E-score. With CCATGTGC, the binding signal is -0.0596 E-score. For CCTTATTA the value was 0.0213 E-score. As for CGCGGCCG, the figure is -0.292 E-score. As for GCACGCGA, the figure is -0.193 E-score. In turn, AGAAATGC gave a binding signal of 0.0185 E-score. For ACCGTTCT the value was 0.0694 E-score. As for AACGAACT, the figure is -0.114 E-score; as for AAAAATCA, 0.0443 E-score; as for CGCCCCAA, -0.198 E-score. For CCAAAGAC the value was -0.0683 E-score; for TGTCATAA, 0.0845 E-score; for GATGCTCC, -0.165 E-score. In turn, ATTATCCC registered a binding signal of 0.218 E-score. For ATGGGTAG the value was 0.22 E-score.

CTAATATA: the binding signal amounted to 0.36 E-score. For TACTCACA the value was -0.0115 E-score. For GAAAGTAC the value was 0.35 E-score. Sequence AAGGAGAT returned a binding signal of 0.0504 E-score. For GAATCCCA the value was -0.125 E-score; for AGCACCAC, -0.205 E-score. For ATGATCTG the value was -0.0834 E-score. For GCTGCTCC the value was -0.268 E-score; for GTCATCGA, 0.105 E-score.

GTGAGCGA showed a binding signal of -0.0637 E-score. As for ACGCGTGA, the figure is 0.0344 E-score. For ACAGTGCC, the binding signal is 0.0698 E-score. As for GCAATTGA, the figure is 0.0573 E-score; as for AGAAACAA, 0.225 E-score; as for AGTACATG, 0.181 E-score. As for TCCGTCGA, the binding signal was -0.101 E-score. For GCTTCAAA, the binding signal is -0.321 E-score. As for ACGTGATC, the figure is 0.0315 E-score; as for CCAGGTAG, 0.0315 E-score; as for AGAGGTGG, -0.189 E-score.

In turn, AGTGGAAC gave a binding signal of -0.0378 E-score. Sequence ATCCGGCC returned a binding signal of -0.219 E-score.

The sequence ATATGAGA yielded a binding signal of 0.122 E-score. As for CAGGCGCG, the figure is -0.094 E-score. For ATAAATCG the value was 0.233 E-score.

In turn, CTGAGCAA had a binding signal of 0.0266 E-score. As for TAGGTTGA, the figure is 0.0242 E-score. For GTATGAGA the value was 0.07 E-score. As for CAAGAGGA, the figure is -0.124 E-score. Regarding AAAGACGC, the binding signal was -0.201 E-score.

ATTGTCTC had a binding signal of 0.00537 E-score. As for AACGTATC, the figure is 0.137 E-score; as for AAGCGTTA, -0.11 E-score; as for ACTTCGTC, -0.14 E-score. For AGCGAGGG the value was -0.218 E-score; for ACACGGAA, -0.051 E-score. For ACGCCCTC the value was -0.299 E-score; for CTCAATCA, -0.0895 E-score. AGCTACGC registered a binding signal of -0.0753 E-score. For CTGAAACA the value was -0.184 E-score; for GAGAGTAA, 0.018 E-score. For GTGTCTCA the value was -0.133 E-score; for GTCCGGAC, 0.0954 E-score; for GGTGGAAC, -0.272 E-score. For CCGCGGTC the value was -0.239 E-score.

Turning to AGCTCTAT, the binding signal worked out at 0.0899 E-score. For AGCCCTTC the value was -0.159 E-score; for CTACTTTA, 0.337 E-score; for AGCACCTA, -0.01 E-score. In turn, AACTCCTT returned a binding signal of -0.154 E-score.

With GCGAATCA, the binding signal was -0.277 E-score. For ACGTGAGC the value was -0.0668 E-score; for AATCACAC, 0.137 E-score. As for AACACCAC, the figure is -0.113 E-score; as for AAATCCGG, 0.0106 E-score. As for CCTGTGCC, the figure is -0.0553 E-score; as for GGCACAGA, -0.0314 E-score; as for GTGTAAAC, 0.0287 E-score. Regarding AAGTAACC, the binding signal was -0.166 E-score.

With AGCCATAC, the binding signal is -0.0885 E-score.

For the sequence AATTCTAA, the binding signal was found to be 0.286 E-score.

In turn, ATAGTCAA gave a binding signal of 0.23 E-score. For AGATTTGA the value was 0.149 E-score; for AGGACTTG, -0.0847 E-score; for GGATGGCA, -0.288 E-score. As for AAATCTAA, the figure is 0.202 E-score; as for GCGAAAAC, 0.0938 E-score. As for AATACATA, the figure is 0.308 E-score. Sequence ACACCATA yielded a binding signal of -0.155 E-score. In turn, ACTATGCA registered a binding signal of 0.273 E-score. Consider GGTGTAAC, for which the binding signal was -0.0285 E-score. As to CTTCTGTA, the binding signal amounted to 0.0822 E-score. As for GAGCTTAA, the figure is -0.111 E-score; as for AATATAGT, 0.337 E-score. As to ACATTTCC, the binding signal stood at 0.122 E-score. For CACATTAG the value was 0.175 E-score; for ATCGTTAG, -0.138 E-score.
